Read-outs that look alike come from different tables or passages of the source.
Assays:
[1] = molecular target: T1, P-gp (Homo sapiens, UniProt P08183); test: EC50 for reversing drug resistance in LCC6MDR cells (cell proliferation assay); conditions: EC50 for Reversing MDR
[2] = tested on: P-gp; test: EC50 for reversing drug resistance in P388ADR cells (cell proliferation assay)
[3] = molecular target: T1, P-gp; test: EC50 for reversing drug resistance in K562/P-gp cells (cell proliferation assay); conditions: EC50 for Reversing MDR
[4] = molecular target: T1, P-gp; design: expressed in transfected cells; host or cells: MDA435/LCC6MDR (human breast cancer line, gift of Dr. Robert Clarke); conditions: EGCG at 10 μM; IC50 of PTX without/with modulator; cited from earlier work
[5] = tested on: P-gp; design: method as in doi:10.1016/j.jff.2011.05.005; conditions: cited from earlier work
[6] = Effect of modulators on the PK of PTX; type: in vivo, BALB/c mice; conditions: BALB/c, mouse, plasma, iv; PTX 12 mg/kg i.v. alone; read-out: AUC of PTX (AUC0–420min) (converted)
[7] = tested on: LCC6MDR xenograft; test: In vivo efficacy in reversing PTX resistance in LCC6MDR tumor xenograft model; conditions: PTX alone 12 mg/kg i.v., q2d x 14
Protocol: (A) In vivo toxicity study of EC31 alone and of its combination with PTX was conducted. BALB/c mice were randomized into five groups with five mice in each group. Body weight of BALB/c mice during treatments was measured every two days. The treatment groups included (1) solvent control (5% NMP + 5% Cremophor EL + 90% PBS to dissolve EC31 and 5% Ethanol + 5% Cremophor EL + 90% PBS to dissolve PTX), (2) PTX (12 mg/kg i.v.), (3) EC31 (30 mg/kg i.p.), (4) EC31 (30 mg/kg i.p.) + PTX (12 mg/kg i.v.), or (5) EC31 (60 mg/kg i.p.) + PTX (12 mg/kg i.v.). The administration was performed every other day 12 times (q2d x 12). The loss of body weight or appetite and treatment-related mortality were monitored and defined as toxicity. […] The tumors were taken out, and their weights were measured. Intratumor concentration of EC31 or PTX was measured using UPLC-MS/MS, and the actual concentration of PTX or EC31 was normalized to the tumor weight. […] Tumor volume and body weight were monitored throughout the treatment period. […] The tumor volume, tumor weight, and doubling time were measured. The number of animal deaths was recorded during the treatment period. […]
The LCC6MDR tumor xenograft model was studied as it was previously. […] Tumor growth was measured with an electronic caliper on the injection day, and the tumor volume was calculated as reported previously.

[8] = tested on: P-gp; conditions: cited from earlier work

T1 sequence (P08183 whole entry): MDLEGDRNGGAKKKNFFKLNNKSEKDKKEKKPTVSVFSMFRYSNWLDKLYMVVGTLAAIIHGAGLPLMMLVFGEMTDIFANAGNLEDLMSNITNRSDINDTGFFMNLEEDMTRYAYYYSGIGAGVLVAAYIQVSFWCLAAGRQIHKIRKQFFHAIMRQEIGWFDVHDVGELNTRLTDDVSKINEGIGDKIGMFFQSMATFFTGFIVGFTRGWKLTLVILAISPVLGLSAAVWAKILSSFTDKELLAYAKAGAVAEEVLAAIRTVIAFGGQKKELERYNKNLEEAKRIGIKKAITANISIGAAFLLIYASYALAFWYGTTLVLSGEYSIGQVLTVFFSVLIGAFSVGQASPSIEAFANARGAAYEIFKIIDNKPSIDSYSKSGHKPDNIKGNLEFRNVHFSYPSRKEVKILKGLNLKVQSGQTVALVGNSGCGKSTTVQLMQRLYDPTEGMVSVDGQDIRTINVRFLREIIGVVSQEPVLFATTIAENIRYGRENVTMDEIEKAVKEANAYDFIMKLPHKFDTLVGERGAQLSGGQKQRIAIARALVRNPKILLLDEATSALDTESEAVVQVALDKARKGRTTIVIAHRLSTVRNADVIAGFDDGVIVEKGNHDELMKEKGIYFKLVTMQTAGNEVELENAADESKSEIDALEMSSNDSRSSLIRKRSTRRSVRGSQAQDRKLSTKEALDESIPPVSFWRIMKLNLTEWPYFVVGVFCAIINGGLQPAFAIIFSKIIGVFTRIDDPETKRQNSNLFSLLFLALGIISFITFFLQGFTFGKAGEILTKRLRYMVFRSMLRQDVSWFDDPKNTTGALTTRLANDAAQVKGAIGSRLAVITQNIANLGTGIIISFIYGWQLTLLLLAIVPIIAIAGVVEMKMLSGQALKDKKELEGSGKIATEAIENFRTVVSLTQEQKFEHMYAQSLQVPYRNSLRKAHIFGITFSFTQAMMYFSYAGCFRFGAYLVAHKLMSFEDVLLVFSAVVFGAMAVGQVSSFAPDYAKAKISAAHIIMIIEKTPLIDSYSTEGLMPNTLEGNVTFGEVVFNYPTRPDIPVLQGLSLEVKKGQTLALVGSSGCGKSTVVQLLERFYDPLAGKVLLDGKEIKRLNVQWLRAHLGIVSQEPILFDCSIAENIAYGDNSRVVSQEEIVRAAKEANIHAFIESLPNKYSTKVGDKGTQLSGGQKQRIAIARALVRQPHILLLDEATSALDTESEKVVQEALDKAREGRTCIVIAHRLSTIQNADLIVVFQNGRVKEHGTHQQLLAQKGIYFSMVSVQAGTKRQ

O=C(O[C@@H]1Cc2c(O)cc(O)cc2O[C@@H]1c1cc(O)c(O)c(O)c1)c1cc(O)c(O)c(O)c1 [EGCG, epigallocatechin gallate, reference compound]
EC50 ([1]; DOX Resistance, concentration that reduces IC50 of DOX by half): > 10 µM
EC50 ([1]; PTX Resistance, concentration that reduces IC50 of PTX by half): > 10 µM
EC50 ([2]; read-out: EC50 for Reversing MDR, DOX Resistance, P388ADR, concentration that reduces IC50 of DOX by half): > 10 µM
EC50 ([2]; read-out: EC50 for Reversing MDR, PTX Resistance, P388ADR, concentration that reduces IC50 of PTX by half): > 10 µM
EC50 ([3]; DOX Resistance, K562/P-gp, concentration that reduces IC50 of DOX by half): > 10 µM
EC50 ([3]; VCR Resistance, K562, concentration that reduces IC50 of VCR by half, column head prints K562): > 10 µM
LCC6MDR P-gp-modulating activity RF (relative fold) [4]: 1.2

COc1cc([C@H]2Oc3cc(O)cc(O)c3C[C@H]2OC(=O)c2cc(O)c(O)c(O)c2)cc(O)c1O [EGCG-3′OMe]
improvement of P-gp-modulating activity relative to EGCG [5]: 2 fold

CC(=O)O[C@H]1C(=O)[C@@]2(C)[C@H]([C@H](OC(=O)c3ccccc3)[C@]3(O)C[C@H](OC(=O)[C@H](O)[C@@H](NC(=O)c4ccccc4)c4ccccc4)C(C)=C1C3(C)C)[C@]1(OC(C)=O)CO[C@@H]1C[C@@H]2O [PTX, paclitaxel]
AUC(0-t) [6]: 6680 ng·h/mL
Doubling time [7]: 11.1 days

COc1cc2c(cc1OC)CN(CCc1ccc(NC(=O)c3cc(OC)c(OC)cc3NC(=O)c3cnc4ccccc4c3)cc1)CC2 [Tariquidar, tariquidar]
stimulation of P-gp ATPase activity [8]: 10 fold

From publication PMC10002220, “In Vivo Reversal of P-Glycoprotein-Mediated Drug Resistance in a Breast Cancer Xenograft and in Leukemia Models Using a Novel, Potent, and Nontoxic Epicatechin EC31” (International Journal of Molecular Sciences, 2023)
